Assay [1] has as its system HSkMC (human skeletal muscle cells). The assay is described as follows: cytotoxicity call (relative viability < 0.9). The note with it: 10 µM.
Assay [2] relates to HepG2. The assay is described as follows: cytotoxicity call (relative viability < 0.9). As to conditions: 10 µM.
For assay [3], the system named is S. aureus RN4220. Nature of the assay: growth inhibition call (relative growth <= 0.2). As to conditions: 50 µM.

This is one part of the list.

Regarding `O=C(C[C@@H]1CC[C@@H]2[C@H](COC[C@@H](O)CN2CC2CCOCC2)O1)N1CCOCC1`, the cytotoxicity call in assay [1] and in assay [2] was “inactive” each time. The growth inhibition call in assay [3] was “inactive”.
For the molecule `NNC(=O)c1cccc([N+](=O)[O-])c1`, the cytotoxicity call in assay [1] and in assay [2] was “inactive” each time. In addition, in assay [3], the growth inhibition call is “inactive”.
For the molecule `Cc1ccc(S(=O)(=O)Nc2ccc3c(c2)CC(=O)N([C@H](C)CO)C[C@@H](C)[C@H](CN(C)C(=O)Nc2ccc(C(F)(F)F)cc2)O3)cc1`, the cytotoxicity call in assay [1] and in assay [2] was “inactive” throughout. The growth inhibition call in assay [3] is “inactive”.
On to `C[C@@H]1CN([C@@H](C)CO)C(=O)c2cccc(NC(=O)Nc3cccc4ccccc34)c2O[C@H]1CN(C)S(=O)(=O)c1ccc(Cl)cc1`, for which the cytotoxicity call in assay [1] and in assay [2] was “inactive” in each case. The growth inhibition call in assay [3] was “inactive”.
Turning to `NNC(=O)CNc1ccc2c(c1)OCO2`, the cytotoxicity call in assay [1] and in assay [2] was “inactive” each time. Moreover, in assay [3], the growth inhibition call is “inactive”.
In the case of `CN(C)C(=O)C[C@H]1CC[C@@H](NC(=O)C2CC2)[C@@H](CO)O1`, the cytotoxicity call in assay [1] and in assay [2] was “inactive” each time. In assay [3], the growth inhibition call was “inactive”.
As to `CC(C)=CCOc1cc2oc(=O)ccc2cc1O`, the cytotoxicity call in assay [1] and in assay [2] was “inactive” in each case. Moreover, the growth inhibition call in assay [3] was “inactive”.
Regarding `Cc1noc(C)c1NC(=O)N(C)C[C@@H]1Oc2c(NS(C)(=O)=O)cccc2C(=O)N([C@H](C)CO)C[C@@H]1C`, the cytotoxicity call in assay [1] and in assay [2] was “inactive” in each case. Besides, the growth inhibition call in assay [3] was “inactive”.
As to `C[C@@H]1CN([C@H](C)CO)C(=O)c2cccc(NC(=O)c3cnccn3)c2O[C@H]1CN(C)C(=O)Nc1ccccc1`, the cytotoxicity call in assay [1] and in assay [2] was “inactive” in each case. Also, in assay [3], the growth inhibition call was “inactive”.
With `C[C@@H]1CN([C@@H](C)CO)C(=O)Cc2cc(NC(=O)Nc3cccc4ccccc34)ccc2O[C@@H]1CN(C)Cc1ccc(C(F)(F)F)cc1`, the cytotoxicity call in assay [1] is “inactive”. The cytotoxicity call in assay [2] was “active”. For the same molecule, in assay [3], the growth inhibition call is “inactive”.
For `CN1C(=O)c2cc(NC(=O)C3CCC3)ccc2OC[C@@H]2O[C@@H](CC(=O)NCCc3ccncc3)CC[C@@H]21`, the cytotoxicity call in assay [1] and in assay [2] was “inactive” throughout. The growth inhibition call in assay [3] is “inactive”.
Turning to `C[C@@H]1CN([C@@H](C)CO)C(=O)c2cc(NC(=O)Cn3cnnn3)ccc2O[C@H]1CN(C)Cc1ccncc1`, the cytotoxicity call in assay [1] and in assay [2] was “inactive” throughout. Also, in assay [3], the growth inhibition call is “inactive”.
For `C[C@H](CO)N1C[C@H](C)[C@H](CN(C)S(C)(=O)=O)Oc2c(NC(=O)NC3CCCCC3)cccc2C1=O`, the cytotoxicity call in assay [1] and in assay [2] was “inactive” throughout. For the same molecule, the growth inhibition call in assay [3] was “inactive”.
For the molecule `COc1ccc(NC(=O)N(C)C[C@H]2OCCCC[C@@H](C)Oc3ccc(NC(=O)c4ccccc4)cc3C(=O)N([C@@H](C)CO)C[C@@H]2C)cc1`, the cytotoxicity call in assay [1] and in assay [2] was “inactive” in each case. Also, the growth inhibition call in assay [3] is “inactive”.
For the molecule `CC1(C)CC[C@]2(C(=O)O[C@H]3O[C@@H](CO)[C@@H](O)[C@@H](O)[C@@H]3O)CC[C@]3(C)C(=CC[C@H]4[C@@]5(C)C[C@@H](O)[C@H](O[C@H]6O[C@H](C(=O)O)[C@@H](O)[C@@H](O)[C@@H]6O)C(C)(C)[C@@H]5CC[C@]43C)[C@@H]2C1`, the cytotoxicity call in assay [1] and in assay [2] was “inactive” throughout. Also, the growth inhibition call in assay [3] was “inactive”.
As to `COc1ccc2c(c1)OC(C)(C)C[C@@H]2N`, the cytotoxicity call in assay [1] and in assay [2] was “inactive” each time. Further, in assay [3], the growth inhibition call is “inactive”.
`COCC(=O)Nc1ccc2c(c1)C(=O)N(C)C[C@H](OC)[C@H](C)CN(Cc1ccccc1F)[C@@H](C)CO2`: the cytotoxicity call in assay [1] and in assay [2] was “inactive” in each case. Also, the growth inhibition call in assay [3] is “inactive”.
Take `O=C(C[C@@H]1CC[C@@H]2[C@H](COC[C@@H](O)CN2C(=O)Nc2ccc(C(F)(F)F)cc2)O1)NCc1ccncn1`: the cytotoxicity call in assay [1] and in assay [2] was “inactive” each time. For the same molecule, the growth inhibition call in assay [3] was “inactive”.
`CCCN1CCC2(CC1)NC(=O)N(CC(=O)N1CCN(C(=O)OCC)CC1)C2=O`: the cytotoxicity call in assay [1] and in assay [2] was “inactive” each time. Moreover, in assay [3], the growth inhibition call is “inactive”.
Turning to `C[C@H](CO)N1C[C@H](C)[C@@H](CN(C)C(=O)Nc2ccc3c(c2)OCO3)Oc2ccc(NC(=O)Nc3cccc4ccccc34)cc2C1=O`, the cytotoxicity call in assay [1] and in assay [2] was “inactive” in each case. In addition, in assay [3], the growth inhibition call was “inactive”.
Turning to `Cc1ccc(S(=O)(=O)Nc2ccc3c(c2)CC(=O)N([C@@H](C)CO)C[C@H](C)[C@H](CN(C)Cc2ccc(Cl)c(Cl)c2)O3)cc1`, the cytotoxicity call in assay [1] and in assay [2] was “active” each time. Further, the growth inhibition call in assay [3] was “inactive”.
As to `COc1ccc(S(=O)(=O)N(C)C[C@H]2Oc3ccc(NS(=O)(=O)c4cccs4)cc3C(=O)N([C@H](C)CO)C[C@H]2C)cc1`, the cytotoxicity call in assay [1] and in assay [2] was “inactive” throughout. The growth inhibition call in assay [3] was “inactive”.
For the molecule `Cn1c(=O)c2c(ncn2CC(=O)O)n(C)c1=O`, the cytotoxicity call in assay [1] and in assay [2] was “inactive” in each case. The growth inhibition call in assay [3] is “inactive”.
With `COCCNC(=O)C[C@H]1C[C@H]2c3cc(NS(C)(=O)=O)ccc3O[C@H]2[C@@H](CO)O1`, the cytotoxicity call in assay [1] and in assay [2] was “inactive” each time. The growth inhibition call in assay [3] was “inactive”.
`C[C@@H]1CN([C@H](C)CO)C(=O)c2cccc(NC(=O)Nc3ccc4c(c3)OCO4)c2O[C@@H]1CN(C)Cc1ccc(C(F)(F)F)cc1`: the cytotoxicity call in assay [1] and in assay [2] was “inactive” each time. For the same molecule, in assay [3], the growth inhibition call was “inactive”.
For `C[C@@H]1CN([C@@H](C)CO)C(=O)c2cc(NC(=O)C3CCCCC3)ccc2O[C@@H](C)CCCCO[C@@H]1CN(C)C(=O)c1ccccc1`, the cytotoxicity call in assay [1] and in assay [2] was “inactive” each time. In addition, in assay [3], the growth inhibition call is “inactive”.
As to `COc1ccccc1CNC(=O)C[C@H]1CC[C@H]2[C@@H](COC[C@H](O)CN2C(=O)Nc2ccc(F)cc2)O1`, the cytotoxicity call in assay [1] is “inactive”. Further, the cytotoxicity call in assay [2] was “active”. For the same molecule, the growth inhibition call in assay [3] was “inactive”.
Turning to `CC(C)NC(=O)Nc1cccc2c1O[C@@H](CN(C)S(=O)(=O)c1ccc(F)cc1)[C@@H](C)CN([C@H](C)CO)C2=O`, the cytotoxicity call in assay [1] and in assay [2] was “inactive” in each case. Also, the growth inhibition call in assay [3] was “inactive”.
`CCCCCCCCCCCCCCCC[N+](C)(C)C`: the cytotoxicity call in assay [1] and in assay [2] was “active” throughout. The growth inhibition call in assay [3] is “inactive”.
Take `Cn1cnc(CCNC(=O)C[C@H]2CC[C@@H]3[C@H](COC[C@@H](O)CN3C(=O)C3CC3)O2)c1`: the cytotoxicity call in assay [1] and in assay [2] was “inactive” in each case. Further, the growth inhibition call in assay [3] was “inactive”.

The values are drawn from the antibiotic and cytotoxicity screens of Wong et al. (2023).
